Laboratory results: PubChem BioAssay AID485297 (National Center for Advancing Translational Sciences (NCATS), 2010)
Hit rate of the full screen: of about 320,000 compounds, about 9,100 (2.8%) were called active. Inconclusive results, whose numbers are uncertain, are shown with a selection of clear calls. Calls follow the shape of the dose curve; as a rule, active = well fitted activation curve with a large enough effect; inconclusive = small, poorly fitted or top-dose-only effect; inactive = no such curve, though single readings can be large or run the other way. No potency is given beside an inconclusive call; the fits are too rough.

experiment: qHTS Assay for Rab9 Promoter Activators; details: Huh7 Rab9 promoter-luciferase reporter, luminescence, 24 h; series mostly up to 9.22 µM; also: nearly all actives have a fitted effect of over 60% in size
How it was run: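 Huh7 cells stably carrying Rab9 promoter–luciferase reporter, plated 1500 cells/well, compound added after 2 h and incubated 24 h at 37 °C; luciferase luminescence then read after 10 min with detection reagent.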
Potency is read from the fitted curve at half-maximal effect; tags tell the direction and shape of the fitted curve.

Row | SMILES | Potency
1 | COc1ccc(C(=O)/C=C/Nc2cc(C)on2)c(OC)c1 | inconclusive [activator, partial curve]
2 | CC12CCC(C(=O)Nc3nc4ccc(Br)cc4s3)(OC1=O)C2(C)C (stereo unspecified) | inconclusive [activator, partial curve]
3 | O=c1c2ccccc2nc(COc2ccccc2)n1/N=C/c1ccco1 | inconclusive [activator, partial curve]
4 | O=C(CSc1nnc(-c2ccccc2)c(-c2ccccc2)n1)NC1CCS(=O)(=O)C1 (stereo unspecified) | inactive
5 | c1ccc2nc(-c3ccncc3)ccc2c1 | inconclusive [activator, partial curve]
6 | Cc1nnc(SCc2cccc(CSc3nnc(C)s3)c2)s1 | inconclusive [activator, partial curve]
7 | COc1ccc(-c2csc(NC(=O)COC(=O)c3ccc(Br)o3)n2)cc1 | inconclusive [activator, partial curve]
8 | C=CCNC(=O)C1CCN(c2nc(C)cc(-c3ccccc3)n2)CC1 | active: 3.55 µM
9 | Cc1ccsc1/C=N/Nc1ncc(Cl)cc1Cl | inconclusive [activator, partial curve]
10 | CN(C)c1ccc(N=Nc2cccc3ccoc23)cc1 | inconclusive [activator, single point]
11 | CCc1ccc(NC(=O)C(=O)NCC2CCCO2)cc1 (stereo unspecified) | active: 1.41 µM
12 | O=C(COC(=O)CSc1ccc(Cl)cc1)NCCc1ccccc1 | inactive
13 | O=C(Nc1ccccc1F)N1CCC(NC(=O)C23CC4CC(CC(C4)C2)C3)CC1 | inconclusive [activator, single point]
14 | O=C(c1ccco1)N1CCN(c2ccc(Cl)cc2)CC1 | inconclusive [activator, partial curve]
15 | CC1(C)Cc2c(sc(NC(=O)c3ccco3)c2C(=O)O)CO1 | inconclusive [activator, single point]
16 | Cc1nn2cc(-c3ccccc3)nc2s1 | active: 1 µM
17 | C(=N\N1CCOCC1)/c1nc(-c2ccccc2)n2ccccc12 | inactive
18 | O=C(Nc1cccc([N+](=O)[O-])c1)c1ccc2snnc2c1 | inactive
19 | CS(=O)(=O)N(CC(=O)Nc1cccc(Cl)c1Cl)c1ccccc1 | inactive
20 | Cc1cc(Br)c(NC(=O)CN2CCCC2)c(Br)c1 | inconclusive [activator, single point]
21 | CC1CCC(C(C)C)C(OC(=O)Cn2c(-c3ccc(Cl)cc3)[n+](C)c3ccccc32)C1 (stereo unspecified) | inactive
22 | Cc1cccc(NC(=S)NNC(=O)c2csc3c2CCCC3)c1 | inconclusive [activator, partial curve]
23 | Cc1ccccc1OCC(=O)Nc1cccc(C(=O)O)c1 | inconclusive [activator, full curve, poor fit]
24 | N#Cc1cn(N2CCCCC2)c(=O)[nH]c1=O | inactive
25 | Fc1cccc(Nc2ncnc3sccc23)c1 | inconclusive [activator, single point]
26 | COC(=O)[C@H](CC(C)C)NC(=O)c1cc2c(cn1)[nH]c1ccccc12 | inactive

Row | SMILES | Potency
27 | CCn1c(SCC(=O)c2cc(C)n(CC3CCCO3)c2C)nc2ccccc21 (stereo unspecified) | inconclusive [activator, partial curve]
28 | O=C(Nc1nc2c(s1)CCCC2)c1cccs1 | active: 0.708 µM
29 | CSc1sc(-c2ccnc(SCCS(C)(=O)=O)n2)c(-c2ccccc2)c1C#N | inactive
30 | S=C(NCc1ccco1)Nc1cccc(Cl)c1Cl | inactive
31 | Oc1ccccc1C1CC(c2cccs2)=NC(c2ccc(Cl)cc2)N1 (stereo unspecified) | inconclusive [activator, single point]
32 | COc1ccc(-c2nnc(SCc3ccccc3F)o2)cc1 | active: 1.41 µM
33 | CCN(CC)c1ccc(/C=N/NC(=O)c2cnccn2)cc1 | inconclusive [activator, full curve]
34 | CCc1cc(C(N)=O)c(NC(=O)c2ccc(OC)cc2)s1 | inconclusive [activator, partial curve]
35 | O=C(/C=C/c1cccc(F)c1)Nc1nccs1 | active: 1.78 µM
36 | O=C(CCC(=O)N1CCOc2ccccc21)NCCCc1ccccc1 | inconclusive [activator, single point]
37 | CN=C1SC(CC(=O)Nc2cc(Cl)ccc2Cl)C(=O)N1C (stereo unspecified) | inactive
38 | CC(=O)c1cccc(NC(=S)NC(=O)c2ccc(C)cc2)c1 | active: 1.41 µM
39 | COc1ccc(CNC(=O)CSc2ccsc2[N+](=O)[O-])cc1 | active: 2.24 µM
40 | Cn1c(SCC(=O)Nc2ccc(NC(=O)c3cccc(F)c3)cc2)nnc1-c1ccncc1 | inactive
41 | O=C(c1cc(COc2ccc(F)cc2F)on1)N1CCOCC1 | inconclusive [activator, single point]
42 | CCCn1c(SCC(=O)N2CCCCC2)nnc1C(C)C | inconclusive [activator, partial curve]
43 | CC1CCCCC12NC(=O)N(CC(=O)N1CCN(S(=O)(=O)c3ccc4c(c3)CCC4)CC1)C2=O (stereo unspecified) | inconclusive [activator, partial curve]
44 | O=C(Nc1ccccc1N1CCOCC1)c1cc(-c2ccco2)nc2ccccc12 | inactive
45 | CCCSc1nnc(NC(=O)Nc2ccccc2)s1 | inconclusive [activator, single point]
46 | C(=N\N1CCN(c2ccccn2)CC1)/c1ccccn1 | inconclusive [activator, single point]
47 | COc1ccccc1N1CCN(C(=O)c2sc3nc(C)nc(N4CCN(c5ccccn5)CC4)c3c2C)CC1 | inconclusive [activator, single point]
48 | Nc1nc(CSc2nc3ccccc3[nH]2)cs1 | inconclusive [activator, partial curve]
49 | O=C(CSc1nnc(NC(=O)c2ccccc2F)s1)NCc1ccco1 | active: 3.98 µM
50 | Cc1ccccc1N(CC(=O)N1CCCCCC1)S(C)(=O)=O | inactive
51 | CN1/C(=C/c2cc[n+](C)c3ccccc23)C=Cc2ccccc21 | inactive
